Results taken from patent publication US20130347134A1, “TRANSGENIC VON WILLEBRAND FACTOR ANIMALS AND USES THEREOF” (priority 2012, published 2013).

Columns and labels:
[1] = target: human platelet glycoprotein Ib alpha (GPIb α) on human platelets (human) (UniProt P07359); assay: translocation of human platelets on immobilized plasma VWF in flow
[2] = target: murine platelet glycoprotein Ib alpha (GPIb α) on mouse platelets (mouse) (UniProt O35930); assay: cell-based or functional assay
Sequence of UniProt O35930 (O35930 17-734): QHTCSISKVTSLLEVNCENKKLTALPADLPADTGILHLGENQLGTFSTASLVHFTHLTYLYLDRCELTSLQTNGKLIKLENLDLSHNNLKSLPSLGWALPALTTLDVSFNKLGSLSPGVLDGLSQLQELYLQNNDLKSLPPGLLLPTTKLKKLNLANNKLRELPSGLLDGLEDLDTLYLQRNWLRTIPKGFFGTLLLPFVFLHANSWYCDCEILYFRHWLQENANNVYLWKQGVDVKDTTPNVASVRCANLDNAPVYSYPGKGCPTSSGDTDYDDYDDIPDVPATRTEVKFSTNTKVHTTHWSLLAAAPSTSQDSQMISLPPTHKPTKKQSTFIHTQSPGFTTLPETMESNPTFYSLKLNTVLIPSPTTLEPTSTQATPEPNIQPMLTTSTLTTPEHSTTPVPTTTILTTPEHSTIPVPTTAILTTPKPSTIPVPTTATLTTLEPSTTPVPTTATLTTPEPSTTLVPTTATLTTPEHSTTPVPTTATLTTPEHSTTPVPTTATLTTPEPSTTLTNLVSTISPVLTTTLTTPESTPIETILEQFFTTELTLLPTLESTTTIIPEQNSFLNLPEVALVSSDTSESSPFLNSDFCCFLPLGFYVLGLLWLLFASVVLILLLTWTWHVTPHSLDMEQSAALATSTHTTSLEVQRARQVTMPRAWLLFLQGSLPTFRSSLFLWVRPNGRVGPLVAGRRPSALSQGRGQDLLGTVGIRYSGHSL

Row | Substance | translocation velocity of human platelets [1] [µm/sec] | tail bleeding time of homozygous VWF-HA1 mice [2] [min]
1 | human plasma von Willebrand factor (VWF) (a stretch of the chain, sequence left out) (ligand) | 3.2 | 
2 | mouse plasma VWF containing the majority of the human A1 domain (amino acids 1240P through 1481G of human VWF) (a stretch of the chain, sequence left out) (ligand) |  | > 10
